Measurements: article PMC13083723 (Patterns, 2026)
Out of some 5,400 compounds screened, about 190 (3.5%) showed an effect of 50% or more. The list shows a part of the results. Positions of bridges follow the written chain, without caps; N, C: chain ends. Non-standard residues stand in square brackets, D forms with d. Residues, ends and D or L forms follow the SMILES beside them. *: point of attachment. Heptanoyl(5-Me) = CCC(C)CCCC(=O)*; Dab = NCC[C@H](N)C(=O)O

test system: Vero-E6; experiment: primary screen, phospholipidosis by LipidTOX staining; higher = more effect of the substance; conditions: 10 µM
How it was run: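 Single-concentration screen at 10 μM, with DMSO 0.1 v/v % and amiodarone 10 μM as controls. Read-out is LipidTOX Red phospholipid staining, which tolerates aldehyde fixation, in Vero-E6 cells.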

Structure (SMILES) | result_ITMP [%]
O=C1N[C@@H]2[C@@H](O)[C@@H](O)[C@H](O)[C@@H](CO)N2C1=O | -4.33
C[C@]12COC(=O)C[C@@H]1CC[C@@H]1[C@@H]2CC[C@@]2(C)[C@H]1CC[C@]2(C)O | 0.61
CC(=O)Nc1ccc(O)cc1 | 0.69
NC(=O)CS(=O)C(c1ccccc1)c1ccccc1 (stereo not drawn) | -1.1
COc1ccc(Cc2nc(=O)c3c(C)nc([C@@H](CCCc4ccccc4)[C@@H](C)O)n3[nH]2)cc1OC | 0.34
O=P1(N(CCCl)CCCl)NCCCO1 (stereo not drawn) | -2.34
Cc1ccc(NC2=CC(=O)c3sc(C)nc3C2=O)cc1 | -4.12
c1ccc2c(c1)sc1ccccc12 | -4.35
NCCCC(N)C(=O)O (stereo not drawn) | 4.66
CCCN[C@@H]1CCc2c(OC)cccc2[C@@H]1C | -3.11
Nc1ccc(S(=O)(=O)[O-])cc1 | -6.57
Cc1cc(-n2c(=O)[nH]c(=O)n(C)c2=O)ccc1Oc1ccc(SC(F)(F)F)cc1 | 2.17
Cc1ccccc1N1C(=O)c2cc(S(N)(=O)=O)c(Cl)cc2NC1C (stereo not drawn) | -2.71
O=C(O)CNC(=O)c1ccccc1I | -3.23
CC1CCC2C(C)(C)C3CC12CCC3(C)O (stereo not drawn) | -2.96
COc1cc(C)[nH]c(=O)c1CNC(=O)c1c(C)n([C@H](C)C2CCOCC2)c2ccccc12 | -1.74
CC(C)COC(=O)c1ccc(N)cc1 | -9.48
O=C1N(c2ccccc2)c2ccccc2C1(Cc1ccncc1)Cc1ccncc1 | -1.08
O=C(NS(=O)(=O)c1ccc(Br)s1)c1ccc(Cl)cc1Cl | -2.71
CN(C)CC[C@@H](c1ccc(Cl)cc1)c1ccccn1 [R4A_0004036_001 / SPE_K39462424] | 22.6
CCc1c(C(=O)Nc2cc(S(=O)(=O)N(CC)CC)ccc2O)[nH]c(C)c1C(C)=O | 21.9
C[C@@H]1CC2C3CCC4=CC(=O)C=C[C@]4(C)[C@@]3(F)[C@@H](O)C[C@]2(C)[C@H]1C(=O)CO (stereo partly drawn) | 6.16
OCCOCCN1CCN(C(c2ccccc2)c2ccc(Cl)cc2)CC1 (stereo not drawn) | 14.9

Structure (SMILES) | result_ITMP [%]
C[C@@H](O[C@H]1OCCN(Cc2nn[nH]c2CN(C)C)[C@H]1c1ccc(F)cc1)c1cc(C(F)(F)F)cc(C(F)(F)F)c1 | 71.2
COc1ccc(CNC(=O)Nc2ncc([N+](=O)[O-])s2)cc1 | -1.3
Cc1cc(CCCOc2c(C)cc(-c3noc(C(F)(F)F)n3)cc2C)on1 | -11.7
C=CC1=C(C(=O)O)N2C(=O)[C@@H](NC(=O)/C(=N\OCC(=O)O)c3csc(N)n3)[C@H]2SC1 | -2.73
CCS(=O)(=O)N(Cc1cccnc1)c1cccc(-c2ccc(C#N)cc2)c1 | -1.54
CCS(=O)c1nc(-c2cccc(OCc3ccccc3)c2)cc(C(F)(F)F)n1 (stereo not drawn) | -1.04
CN1C(=O)CCS(=O)(=O)C1c1ccc(Cl)cc1 (stereo not drawn) | 2.2
CC1(S(=O)(=O)[O-])CC(=O)c2ccccc2C1=O (stereo not drawn) | -0.84
C/C(=C\C(N)C(=O)O)CP(=O)(O)O (stereo not drawn) | -1.95
CCC(C)CCCC(=O)N[C@@H](CCN)C(=O)N[C@H](C(=O)N[C@@H](CCN)C(=O)N[C@H]1CCNC(=O)[C@H]([C@@H](C)O)NC(=O)[C@H](CCN)NC(=O)[C@H](CCN)NC(=O)[C@H](CC(C)C)NC(=O)[C@@H](CC(C)C)NC(=O)[C@H](CCN)NC1=O)[C@@H](C)O (stereo partly drawn) [R4A_0005175_001 / SPE_A18924964] ({Heptanoyl(5-Me)}-[Dab]T[Dab][Dab][Dab][dL]L[Dab][Dab]T; lactam 4-C) | -1.3
Nc1ccc(-c2nc3ccc(-c4nc5ccc(N)cc5[nH]4)cc3[nH]2)cc1 | -2.7
CS(=O)(=O)CCNCc1ccc(-c2ccc3ncnc(Nc4ccc(OCc5cccc(F)c5)c(Cl)c4)c3c2)o1 | 91.4
O=C(Nc1ccc(O)cc1)c1ccccc1O | 18.9
C=CC(=O)Nc1cccc(Nc2nc(Nc3ccc(N4CCN(C(C)=O)CC4)cc3OC)ncc2C(F)(F)F)c1 | 32.5
Oc1ccc(Cl)c2cccnc12 | 1.97
Nc1c(Br)cc(Br)cc1CN[C@H]1CC[C@H](O)CC1 | 2.43
CC1Nc2ccc(Cl)cc2S(=O)(=O)N1 (stereo not drawn) | -0.33
CCC(=O)c1ccc(O)cc1 | -7.42
O=C([O-])C(=O)[O-].[NH-][C@@H]1CCCC[C@H]1[NH-].[Pt+4] | 22.9
COC(=O)c1sccc1S(=O)(=O)Nc1ccc(Nc2ccccc2)cc1OC | 2.22
CC(C)(Sc1cc(C(C)(C)C)c(O)c(C(C)(C)C)c1)Sc1cc(C(C)(C)C)c(O)c(C(C)(C)C)c1 | -4.21
CCN1C(=O)NC(c2ccccc2)C1=O (stereo not drawn) | -4.16
